From PubChem BioAssay AID540317 (National Center for Advancing Translational Sciences (NCATS), 2011)
The campaign covered roughly 390,000 compounds. About 2,200 (0.56%) were called active. The shares of active, inactive and inconclusive entries below differ from those in the screen. The call rests on the fitted dose curve; in most records, active means well fitted inhibition curve with a large enough effect; inconclusive means small, poorly fitted or top-dose-only effect; inactive means no such curve, though single readings can be large or run the other way. Potencies of inconclusive entries are doubtful fits and often do not repeat.
Further: nearly all actives have a fitted effect of over 70% in size.
Potency means the concentration at half of the fitted maximal effect; tags describe the fitted curve by direction and shape.

The compounds below were run against Chromobox protein homolog 1 (Homo sapiens) (UniProt P83916) (assay: HTS for Inhibitors of HP1-beta Chromodomain Interactions with Methylated Histone Tails). Details: AlphaScreen HP1-beta / biotin-H3K9me3 peptide binding; series mostly up to 114 µM; activity change, negative = inhibition: at the top concentration.
Sequence of UniProt P83916 (P83916 whole entry, looked up): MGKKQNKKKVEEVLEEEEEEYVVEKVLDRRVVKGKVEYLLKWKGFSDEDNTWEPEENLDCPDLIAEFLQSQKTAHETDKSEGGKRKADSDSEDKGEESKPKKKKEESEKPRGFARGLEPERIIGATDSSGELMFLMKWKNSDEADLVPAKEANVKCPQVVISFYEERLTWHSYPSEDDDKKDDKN
How it was run: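 Compound inhibition of the preformed complex between 50 nM HP1-beta and 50 nM biotinylated H3K9me3 peptide was read by AlphaScreen. Buffer was PBS pH 7.4 with 0.01% Tween-20. Incubations ran 30 min at room temperature, with 10 ug/mL donor/acceptor beads.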
With `O=C(NCC(c1cccnc1)N1CCc2ccccc21)c1cccc(Br)c1` (stereo not given) the “activity change, negative = inhibition” value was inactive: 10.9%.
In the case of `CCN(CC)S(=O)(=O)c1ccc2c(c1)N(CC(=O)Nc1ccccc1F)C(=O)C1CCCN21` (stereo not given), the “activity change, negative = inhibition” value is reported as inactive: 27.9%.
For `Cc1cnc(NC(=O)CSc2nnc(-c3ccccc3)n2Cc2ccccc2)s1`, the Potency was inconclusive: 35.5 µM [inhibitor, partial curve].
With `COc1cccc(CN2CCN(C(=O)c3cccc4ccccc34)CC2)c1OC` the Potency was active: 20 µM.
`CC1(C)Cc2c(cnn2-c2cccc(F)c2)C(NC(=O)CCN2CCCC2=O)C1` (stereo not given) was tested, and the “activity change, negative = inhibition” value was inactive: 19.7%.
For `COCCCNC(=O)c1cc2cc(S(=O)(=O)N3CCCCC3)ccc2n1C`, the “activity change, negative = inhibition” value was inactive: 24.3% [at 57 µM].
`Cc1ccc(C(C)(c2ccc(N)cc2)c2ccc(N)cc2)cc1` was tested, and the Potency was inconclusive: 56.2 µM [inhibitor, partial curve, poor fit].
For `CCCCCn1c(=O)[nH]c2cc(C(=O)Nc3ccc(F)c(F)c3)ccc2c1=O`, the “activity change, negative = inhibition” value was inactive: 34.5%.
`COc1cc(O)c2c(=O)c3c(O)c(O)ccc3oc2c1OC` was tested, and the Potency was inconclusive: 8.91 µM [inhibitor, full curve, poor fit].
In the case of `O=c1c2sccc2[nH]c(=S)n1-c1ccccc1`, the “activity change, negative = inhibition” value is reported as inactive: 25.3%.
For `Cc1ccccc1OCCn1cc(C(=S)N2CCN(C)CC2)c2ccccc21`, the Potency was inconclusive: 14.1 µM [inhibitor, full curve].
`COc1ccc(NC(=O)C2CCN(S(=O)(=O)c3cccc(-c4noc(C)n4)c3)CC2)cc1OC` was tested, and the Potency was inconclusive: 89.1 µM [inhibitor, partial curve, poor fit].
With `O=C(CSc1ccccc1)OCC(=O)N1CCN(C(=O)c2ccco2)CC1` the “activity change, negative = inhibition” value was inactive: 31.3%.
With `CCOCCCNC(=O)CN1CCN(c2ccc(F)cc2)CC1` the Potency was inconclusive: 70.8 µM [inhibitor, single point].
In the case of `COc1ccc(CN2CCN(C(C)C(=O)N(C)Cc3cccc(F)c3)CC2)cc1OC` (stereo not given), the Potency is reported as inconclusive: 12.6 µM [inhibitor, full curve, poor fit].
With `COc1ccc(-c2cn(-c3ccc(C)cc3)c(=O)n2CC(=O)Nc2ccc(OC)cc2OC)cc1` the Potency was inconclusive: 25.1 µM [inhibitor, partial curve].
With `CC(C)(C)c1ccc(-c2nc(C#N)c(NCCCn3ccnc3)o2)cc1` the Potency was inconclusive: 39.8 µM [inhibitor, partial curve, poor fit].
In the case of `CCOC(=O)COc1ccc(C2C(C(=O)OC)=C(C)NC3=C2C(=O)c2ccccc23)cc1Cl` (stereo not given), the Potency is reported as inconclusive: 14.1 µM [inhibitor, full curve].
`CC(C)NC(=S)N/N=C1\CCCCc2ccccc21` was tested, and the Potency was inconclusive: 22.4 µM [inhibitor, partial curve, poor fit].
With `S=c1[nH]cnc2sc(Nc3ccccc3)nc12` the “activity change, negative = inhibition” value was inactive: 30.5%.
For `CN(C)CCCNCC(=O)NN(c1ccccc1)c1ccccc1`, the “activity change, negative = inhibition” value was inactive: -31.9%.
`CC(=O)Nc1ccc2nc(-c3ccc(Br)o3)[nH]c2c1` was tested, and the “activity change, negative = inhibition” value was inactive: 42.2%.
In the case of `Cc1ccc2nc(-c3ccc(N=Nc4cc(S(=O)(=O)O)c5ccccc5c4O)cc3)sc2c1S(=O)(=O)O`, the Potency is reported as active: 14.1 µM.
`COC(=O)c1c(NC(=O)CCCOc2cccc(C)c2)sc2c1CCC2` was tested, and the “activity change, negative = inhibition” value was inactive: 15.4%.
In the case of `CCn1c(SCC(=O)c2ccc(O)c(O)c2)nnc1-c1ccccc1OC`, the Potency is reported as inconclusive: 14.1 µM [inhibitor, partial curve, poor fit].
In the case of `O=[N+]([O-])c1cc(S(=O)(=O)Nc2ccccc2)ccc1N1CCN(c2ccccc2)CC1`, the Potency is reported as inconclusive: 28.2 µM [inhibitor, partial curve].
For `CC(=O)Nc1ccc(S(=O)(=O)N2CCN(C(C)CCc3ccccc3)CC2)cc1` (stereo not given), the Potency was inconclusive: 44.7 µM [inhibitor, partial curve].
In the case of `CN1CCN(C(=S)c2cn(Cc3ccc(Br)cc3)c3ccccc23)CC1`, the Potency is reported as inconclusive: 50.1 µM [inhibitor, partial curve, poor fit].
In the case of `O=C1Nc2ccccc2Oc2cc(Oc3ccccc3)ccc21`, the Potency is reported as inconclusive: 39.8 µM [inhibitor, partial curve, poor fit].
With `O=C(CSc1nc2ccccc2c(=O)n1Cc1ccco1)N1CCN(c2ccccc2)CC1` the Potency was inconclusive: 7.94 µM [inhibitor, full curve].
In the case of `CCOC(=O)C1=C(C)N=c2s/c(=C\c3ccc(OCC(=O)O)c(OC)c3)c(=O)n2C1c1ccc(OC)cc1` (stereo not given), the “activity change, negative = inhibition” value is reported as inactive: 8.06%.
With `COc1ccc(/C=C2/SC(=S)N(n3c(C)ccc3C)C2=O)cc1` the Potency was inconclusive: 20 µM [inhibitor, partial curve, poor fit].
With `CCn1ccc(C(=O)Nc2ccsc2C(=O)OC)n1` the “activity change, negative = inhibition” value was inactive: 15%.
In the case of `C[N+](C)(C)CCN(Cc1ccc(Cl)cc1)c1ccccn1`, the “activity change, negative = inhibition” value is reported as inactive: 22.6%.
`COc1ccc(OC)c(CN2CCN(C(=O)c3cccc4ccccc34)CC2)c1` was tested, and the Potency was active: 22.4 µM.
In the case of `COc1ccc(N=C/C=C2\C=C(c3ccccc3)OC(C)(C)O2)cc1`, the Potency is reported as inconclusive: 17.8 µM [inhibitor, full curve].
`Cc1nnc2sc(SCc3ccc(Br)cc3)nn2c1=O` was tested, and the “activity change, negative = inhibition” value was inactive: 20.4%.
For `Cc1cc2ccccn2c1C(=O)c1cc([N+](=O)[O-])cc([N+](=O)[O-])c1`, the Potency was inconclusive: 10 µM [inhibitor, full curve].
In the case of `COc1ccc(N2CCN(c3oc(-c4ccco4)nc3C#N)CC2)cc1`, the Potency is reported as inconclusive: 56.2 µM [inhibitor, partial curve, poor fit].
With `COCCN(C(=O)COC(=O)Cc1coc2cc3c(cc12)CCC3)c1c(N)n(Cc2ccccc2)c(=O)[nH]c1=O` the Potency was inconclusive: 56.2 µM [inhibitor, single point].
In the case of `O=C(NNC(=O)c1cc(O)c(O)c(O)c1)NC1CCCCC1`, the “activity change, negative = inhibition” value is reported as inactive: -29.9%.
`CCOc1ccc(OCC)c(S(=O)(=O)NCCOC23CC4CC(CC(C4)C2)C3)c1` was tested, and the “activity change, negative = inhibition” value was inactive: 54.7%.
`C/C=C/c1ccc(OCC(O)CN2CCCCC2CC)c(OC)c1` (stereo not given) was tested, and the Potency was inconclusive: 31.6 µM [inhibitor, partial curve].
`CC1(C)Cc2nc3nc(SCC(=O)NCCc4ccccc4)n(-c4ccccc4)c(=O)c3cc2CO1` was tested, and the “activity change, negative = inhibition” value was inactive: 20.6%.
With `COC(=O)c1c(NC(C)=O)sc(C(=O)Nc2ccccc2OC)c1C` the Potency was inconclusive: 39.8 µM [inhibitor, single point].
In the case of `Cn1c(-c2ccc(F)cc2)cnc1SCC(=O)N1CCCc2ccccc21`, the Potency is reported as inconclusive: 22.4 µM [inhibitor, partial curve, poor fit].
With `COc1ccc(/C=C2\SC(=S)N(CCCC(=O)Nc3cc(C)on3)C2=O)cc1OC` the “activity change, negative = inhibition” value was inactive: 6.62%.
`Cc1cc(C)c(OCCN(C)C)c(Cl)c1` was tested, and the Potency was inconclusive: 79.4 µM [inhibitor, single point].
`Cc1onc(-c2ccccc2Cl)c1C(=O)Nc1sc2c(c1C#N)CCC2` was tested, and the Potency was inconclusive: 14.1 µM [inhibitor, partial curve, poor fit].
With `Cc1ccccc1NC(=S)/C(=C(\[O-])c1cc(C)n(Cc2ccccc2Cl)c1C)[n+]1ccccc1` the Potency was inconclusive: 20 µM [inhibitor, full curve].
In the case of `O=C(Nc1nccs1)c1ccc(-c2cccc([N+](=O)[O-])c2)o1`, the Potency is reported as inconclusive: 25.1 µM [inhibitor, full curve].
For `O=[N+]([O-])c1cc(C(F)(F)F)cc([N+](=O)[O-])c1NN=C1CCCCC1`, the Potency was active: 20 µM.
In the case of `O=C(/C=C/c1ccccc1[N+](=O)[O-])N1CCN(c2ccccc2F)CC1`, the “activity change, negative = inhibition” value is reported as inactive: 13.7%.
For `Cc1sc(NC(=O)c2ccco2)nc1-c1ccccc1`, the “activity change, negative = inhibition” value was inactive: 24.6%.
With `CS(=O)(=O)N1CCN(c2nc3ccc(Cl)cc3s2)CC1` the “activity change, negative = inhibition” value was inactive: 8.02%.
`COc1ccccc1CNC(=O)CCN1C(=O)COc2ccc(C)cc21` was tested, and the Potency was inconclusive: 28.2 µM [inhibitor, single point].
For `CCn1c(SCC(=O)N(C)CC(=O)Nc2cccc(OC)c2)nnc1-c1ccco1`, the “activity change, negative = inhibition” value was inactive: 11.2%.
For `Cc1cc(N2CCCC2)ccc1/C=C1/C(=O)N(C)C(=S)N1C`, the Potency was inconclusive: 5.01 µM [inhibitor, full curve].
With `O=S(=O)(Nc1ccc(N=Nc2ccc(O)c3ccccc23)cc1)c1ccccc1` the Potency was active: 39.8 µM.
`N#Cc1nc(Cc2cccc3ccccc23)oc1N1CCCCC1` was tested, and the Potency was inconclusive: 15.8 µM [inhibitor, full curve, poor fit].
In the case of `COc1ccc(CNCc2ccc(C)cc2)c(OC)c1`, the Potency is reported as inconclusive: 79.4 µM [inhibitor, single point].
With `CC1=NN(c2ccccc2)C(=O)/C1=C/C=C/C=C/N(C)C` the Potency was inconclusive: 50.1 µM [inhibitor, partial curve, poor fit].
In the case of `CCOc1cc(CNCCc2ccccc2)ccc1OCC(=O)NC(C)(C)C`, the Potency is reported as inconclusive: 39.8 µM [inhibitor, single point].
With `Cc1cc(C2=NNC(=NC3CC3)SC2)c(C)n1-c1ccccc1F` the Potency was inconclusive: 44.7 µM [inhibitor, partial curve].
In the case of `COc1ccc(Br)cc1C1SCCN1S(C)(=O)=O` (stereo not given), the “activity change, negative = inhibition” value is reported as inactive: 21.6%.
With `CN(C(=O)CCN1C(=O)S/C(=C\c2ccccc2)C1=O)C1CCS(=O)(=O)C1` (stereo not given) the “activity change, negative = inhibition” value was inactive: 18%.
`Cc1ccc(S(=O)(=O)NCc2ccc3c(c2)cc(C)n3C)cc1` was tested, and the Potency was inconclusive: 35.5 µM [inhibitor, partial curve, poor fit].
`CC(C)c1ccc(-c2c(C#N)c(N)nc(SCC(=O)N3CCCCCC3)c2C#N)cc1` was tested, and the “activity change, negative = inhibition” value was inactive: 47.1%.
`S=C(c1ccc(N2CCCC2)cc1)N1CCCCC1` was tested, and the Potency was inconclusive: 8.91 µM [inhibitor, partial curve, poor fit].
In the case of `Cc1cc(O)c2c(c1O)C(=O)[C@]13C(=C2O)C(=O)[C@@H]2[C@@H](O)[C@H]1[C@@H]1[C@H](O)[C@H]3C(=O)C3=C(O)c4c(O)cc(C)c(O)c4C(=O)[C@]312`, the Potency is reported as inconclusive: 14.1 µM [inhibitor, full curve, poor fit].
